Where no end group is shown, it is not given here.

This note sets out measurements from patent US20100210562A1, “USE OF IL-1 RECEPTOR PEPTIDE, ALONE OR IN COMBINATION WITH D-ALA-GLN-OCTADECYL ESTER, AS A THERAPEUTIC AGENT” (priority 2007, published 2010).

The assay concerns HIV-1IIIB. The experiment in a line: HIV-1 antiviral (CPE reduction) assay in CEM-SS cells. The note with it: 10 micrograms per ml; 6 days post-infection; MTS readout.

For the substance D-Ala-Gln-octadecyl ester [Peptide 2], the “reduction of the cytopathic effect (CPE) in HIV-1 infected CEM-SS cells” value was 100%.

“Lys-Ile-Cys-Ile-Arg-Ile-Gln-Ile-Ser-OH (KICIRIQIS-OH) [Peptide 1]”: the “reduction of the cytopathic effect (CPE) in HIV-1 infected CEM-SS cells” value was 100%.
